Measured values as given in PubChem BioAssay AID2451 (National Center for Advancing Translational Sciences (NCATS), 2010).
Several values for one entry are separate records, joined by “and”; a condition that tells them apart may be missing. Equal entries are not always repeated. Among all 290,000 compounds or so, about 2,100 (0.72%) were called active. Inconclusive means that the source gave no clear call. Such entries were picked first, then a sample of the others. The call rests on the fitted dose curve; in most records, active means well fitted inhibition curve with a large enough effect; inconclusive means small, poorly fitted or top-dose-only effect, or effect the other way; inactive means flat fitted curve, though single readings scatter. A potency beside an inconclusive call is a rough fit, not a confirmed value.

molecular target: Fructose-bisphosphate aldolase (Giardia intestinalis (strain ATCC 50803 / WB clone C6)) (UniProt A8B2U2); assay: qHTS Assay for Inhibitors of Fructose-1,6-bisphosphate Aldolase from Giardia Lamblia; settings: purified Giardia FBPA; activity, negative = inhibition: at 59.6 µM (top of the series) unless noted; further: nearly all actives have a fitted effect of over 55% in size
In short: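 Giardia FBPA (40 nM reagent) was preincubated 10 min at RT with compound (up to 57.5 uM final), then substrate plus GAPDH/TPI/NAD/arsenate coupling system with diaphorase/resazurin was added; resorufin fluorescence (525/598 nm) was read after 20 min.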
On the % scale 0 is the no-effect control and ±100 the full control effect; potency means the concentration at half of the fitted maximal effect; tags describe the fitted curve by direction and shape.

Chain of UniProt A8B2U2 (A8B2U2 whole entry, looked up): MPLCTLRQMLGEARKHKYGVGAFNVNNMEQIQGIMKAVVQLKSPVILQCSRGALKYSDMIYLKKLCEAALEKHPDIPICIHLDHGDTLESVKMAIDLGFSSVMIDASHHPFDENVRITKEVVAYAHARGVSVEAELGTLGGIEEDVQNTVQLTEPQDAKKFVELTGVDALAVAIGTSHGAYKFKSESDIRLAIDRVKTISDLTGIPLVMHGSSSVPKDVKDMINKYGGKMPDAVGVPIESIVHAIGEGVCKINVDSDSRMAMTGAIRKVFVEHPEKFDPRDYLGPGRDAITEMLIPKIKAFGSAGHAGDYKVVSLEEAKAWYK

Row | Structure (SMILES) | Potency | activity, negative = inhibition
1 | C(=C\c1ccco1)/C1=NN(c2ccccc2)C(c2ccco2)C1 (centres undefined) | inactive | 
2 | CCc1ccc(C(=O)N2CCC(c3nc4ccccc4s3)CC2)cc1 | inactive | 
3 | CCCC(=O)Nc1ccc(S(=O)(=O)Nc2cc(OC)nc(OC)n2)cc1 | inconclusive: 39.8 µM [inhibitor, single point] | 
4 | Cc1ccc(C(C)C)c(OCCNCc2ccccc2)c1 | inconclusive: 22.4 µM [inhibitor, partial curve, poor fit] | 
5 | Cc1nnc(NC(=O)C(C)Sc2nnc(-c3ccco3)n2C(C)C)s1 (centres undefined) | inconclusive: 25.1 µM [inhibitor, partial curve] | 
6 | O=C(NCC(=O)N(Cc1cccs1)C(C(=O)NC1CCCCC1)c1cccnc1)c1ccco1 (centres undefined) | inactive | 
7 | O=C1/C(=C/C=C/c2ccco2)SC(=S)N1c1ccc(O)cc1 | inconclusive: 19.9 µM [inhibitor, partial curve] | 
8 | CCOc1c2ccc(C(=O)NCC34CC5CC(CC(C5)C3)C4)cc2nn1CC | inactive | 
9 | COc1cc(OC)cc(C(=O)N2CCN(Cc3cccc(F)c3)CC2)c1 | inconclusive: 22.3 µM [inhibitor, single point] | 
10 | S=C1NC(c2ccccc2)=CC(c2ccccc2)N1 (centres undefined) | inactive | 
11 | COc1ccc2[nH]cc(CCNc3cc(-c4cccnc4)ncn3)c2c1 | inactive | 
12 | CCOC(=O)c1sc(S(C)=O)c2c1CCc1conc1-2 (centres undefined) | inconclusive: 22.3 µM [inhibitor, partial curve] | 
13 | Cc1cccnc1NCc1ccc(O)c2ncccc12 | inconclusive: 4.46 µM [inhibitor, full curve] | 
14 | O=C(NC(=S)Nc1ccccc1[N+](=O)[O-])c1cncc(Br)c1 | active: 7.94 µM | 
15 | Cc1cc(=S)cc(C)n1CCCn1ccnc1 | inconclusive: 17.7 µM [inhibitor, single point] | 
16 | Cc1ccc(/C(N)=N/OC(=O)Oc2ccccc2)cc1 | inactive | 
17 | CN1C(=O)/C(=C/c2ccc(OCc3ccc(C(=O)O)cc3)c(Cl)c2)NC1=S | inconclusive: 11.2 µM [inhibitor, partial curve] | 
18 | COc1ccc(N2CCN(c3ccc(NC(=O)NN)cc3)CC2)cc1 | inactive | 
19 | COc1cc(OC)c(OC)cc1CN1CCN(Cc2cccn2C)CC1 | inconclusive: 14.1 µM [inhibitor, partial curve] | 
20 | O=C1CN(C(=S)NC(=O)c2ccc(-c3ccccc3)cc2)CCN1 | inconclusive: 17.7 µM [inhibitor, single point] | 
21 | O=C(CCc1nnc(C2CCCCC2)o1)N1CCC(Oc2cccnc2)CC1 | inactive | 
22 | CCC(=O)NC1=C(Nc2ccc(N)cc2)C(=O)c2ccccc2C1=O | inconclusive: 11.2 µM [inhibitor, partial curve] | 
23 | O=C(N/N=C/c1cccc([N+](=O)[O-])c1O)c1cccs1 | inconclusive: 1.58 µM [inhibitor, full curve, poor fit] | 
24 | Cc1ccc(C(=O)N/C(=C\c2cccs2)C(=O)NC2CCCCC2)cc1 | inactive | 
25 | Cc1cc(-c2csc(NC(=O)c3ccc(=O)[nH]c3)n2)c(C)n1Cc1ccco1 | inconclusive: 11.2 µM [inhibitor, partial curve] | 

Row | Structure (SMILES) | Potency | activity, negative = inhibition
26 | Cc1[nH][nH]c(=O)c1C(c1ccc(-c2ccc(Cl)cc2Cl)o1)c1c(C)[nH][nH]c1=O | active: 12.6 µM | 
27 | CC(C)(CN1CCC(Cc2ccccc2)CC1)NS(=O)(=O)c1ccccc1 | inconclusive: 17.7 µM [inhibitor, partial curve] | 
28 | CC(C)CCSc1cc(NCCO)c([N+](=O)[O-])c2nonc12 | inconclusive: 3.54 µM [inhibitor, partial curve] | 
29 | Clc1ccccc1N1CCN(Cc2ccc3c(c2)OCO3)CC1 | inconclusive: 28.2 µM [inhibitor, partial curve] | 
30 | C/C(=N\Nc1ccc2nncn2n1)c1ccccn1 | active: 7.92 µM | 
31 | COc1ccc(NC(c2ccccc2)c2ccncc2)cc1 (centres undefined) | inconclusive: 7.94 µM [inhibitor, partial curve] | 
32 | N#CCC(=O)c1sccc1-n1cccc1 | inconclusive: 5.61 µM [inhibitor, partial curve] | 
33 | Cn1c(=O)[nH]c(=O)c2c1nc([N+](=O)[O-])n2Cc1ccccc1 | active: 14.1 µM | 
34 | Cc1nn(-c2ccccc2)c2c1C1(C(=O)N3c4c(cccc41)C(C)CC3(C)C)C(C#N)=C(N)O2 (centres undefined) | inconclusive: 2.23 µM [inhibitor, full curve] | 
35 | COC(=O)c1ccc2c(=O)[nH]c(CN3c4ccccc4CC3C)nc2c1 (centres undefined) | inactive | 
36 | Cc1cc(=O)n2nc(N3CCCC(C(=O)NCCCN4CCc5ccccc5C4)C3)sc2n1 (centres undefined) | inconclusive: 19.9 µM [inhibitor, single point] | 
37 | O=c1cc(-c2ccccc2Cl)oc2c([N+](=O)[O-])c(O)cc(O)c12 | inconclusive: 15.8 µM [activator, single point] and inconclusive: 39.7 µM [activator, single point] | 
38 | c1cc(CN2CCN(C3CCCCCC3)CC2)ccn1 | inconclusive: 3.54 µM [inhibitor, full curve] | 
39 | CC(=C1C(=O)c2ccccc2C1=O)N1CCN(CCN=Cc2c(O)n(C)c(=O)n(C)c2=O)CC1 |  | inconclusive: 29.1% [activator]
40 | CSc1nc2nc3c(c(=O)n2[nH]1)CCCC3 | inconclusive: 35.5 µM [inhibitor, single point] | 
41 | Cc1cccc(NC(=S)N/N=C/c2cccc([N+](=O)[O-])c2)c1 | inconclusive: 39.8 µM [activator, partial curve, poor fit] | 
42 | c1ccc(-c2nnsc2-c2ncc[nH]2)cc1 | inactive | 
43 | N=c1c2ccccc2nnn1-c1ccc(C(F)(F)F)cc1 | inactive | 
44 | Cc1ccsc1C(=O)C1CCCN(Cc2cccn2-c2ccc(Cl)cn2)C1 (centres undefined) | inactive | 
45 | Cc1ccc(C)c(NC(=S)NCCc2ccc(F)cc2)c1 | inactive | 
46 | c1ccc(NCc2ccccn2)cc1 | inactive | 
47 | CC1CCC2(CC1)NC(=O)N(CC(=O)Nc1sc3c(c1C(N)=O)CCC3)C2=O (centres undefined) | inconclusive: 15.8 µM [inhibitor, single point] | 
48 | CCOC(=O)CSc1nc2ccccc2n2cnnc12 | inconclusive: 22.3 µM [inhibitor, partial curve] | 
49 | CCCCn1c(=O)[nH]c(=O)c2c1nc(CN(C)Cc1cccc(OC)c1OC)n2CCC | inconclusive: 17.8 µM [inhibitor, single point] | 
50 | Cc1c(/C=N\NC(=O)c2c[nH]c3ccccc23)cnn1C | inactive | 

Row | Structure (SMILES) | Potency | activity, negative = inhibition
51 | Cc1ncc(CO)c(/C=N/NC(=O)c2ccccc2Br)c1O | inconclusive: 3.15 µM [inhibitor, full curve, poor fit] | 
52 | CCCOc1ccc(OCCSc2ncccn2)cc1 | inactive | 
53 | Cc1noc(C)c1COC(=O)CCOc1ccccc1 | inconclusive: 17.7 µM [inhibitor, single point] | 
54 | c1ccc2c(c1)OCCOCCOCCOCCOCCOc1ccccc1OCCOCCOCCO2 | inactive | 
55 | CN(C)/C=N/C(=S)Nc1ccc(Br)cc1F | inconclusive: 44.6 µM [inhibitor, single point] | 
56 | CCOc1ccccc1N1CCN(Cc2cc3c(cc2[N+](=O)[O-])OCO3)CC1 | inconclusive: 25.1 µM [inhibitor, partial curve] | 
57 | O=C(Nc1cccc(Cl)c1)c1csc(-c2ccccc2)n1 | inconclusive: 28.2 µM [inhibitor, partial curve] | 
58 | Cc1[nH]c2ccc(OC(F)(F)F)cc2c1CCNCc1ccc(Cl)cc1 | inconclusive: 15.8 µM [inhibitor, partial curve] | 
59 | CC[n+]1c(/C=C/c2ccc(N(C)C)cc2)ccc2ccccc21 | inactive | 
60 | COc1ccc(N2C(S)=C(C#N)C(=O)NC23CCCCC3)cc1 | inconclusive: 14.1 µM [inhibitor, partial curve] | 
61 | Cc1cccc(OCC(=O)N2CCN(Cc3ccc4c(c3)OCO4)CC2)c1 | inconclusive: 14.1 µM [inhibitor, partial curve] | 
62 | O=C1OC(OC(=O)c2cccnc2Nc2cccc(C(F)(F)F)c2)c2ccccc21 (centres undefined) | inactive | 
63 | Cc1ccc2c(c1)C1CCCC3C1N2CC(=O)N3Cc1ccccc1 (centres undefined) | inconclusive: 17.7 µM [inhibitor, single point] | 
64 | COc1cc(OC)c(OC)cc1CN1CCN(S(=O)(=O)c2ccc(NC(C)=O)cc2)CC1 | inconclusive: 22.3 µM [inhibitor, single point] | 
65 | CCc1ccc(NC(=O)c2cnc(SC)nc2C)cc1 | inactive | 
66 | Cc1oc(-c2cccs2)nc1CN1CCN(C(C)C)C(CCO)C1 (centres undefined) | inactive | 
67 | Cc1cc(C)cc(C(=O)NC(CC(N)=O)c2ccc(NCCN3CCCC3)c([N+](=O)[O-])c2)c1 (centres undefined) | inactive | 
68 | CC(C)(C)OC(=O)NCCC(=O)N/N=C/c1cccc2cccnc12 | inconclusive: 17.7 µM [inhibitor, single point] | 
69 | Cc1ccc(S(=O)(=O)NN2C(=O)/C(=C/c3ccc(F)cc3)SC2=S)cc1 | inconclusive: 25.1 µM [inhibitor, partial curve] | 
70 | Cc1cccc(OCC(=O)N/N=C/c2cc([N+](=O)[O-])ccc2N2CCOCC2)c1 | inconclusive: 19.9 µM [inhibitor, single point] | 
71 | CCC(CC)NC(=O)c1cc2c(C)nn(Cc3ccccc3Cl)c2s1 | inactive | 
72 | CCCNC(=S)Nc1ccc2nc(-c3ccccn3)c(-c3ccccn3)nc2c1 | inconclusive: 1.77 µM [inhibitor, full curve] | 
73 | O=C(O)C(c1ccccc1)N1C(=O)/C(=C\c2ccc(O)c(O)c2)SC1=S (centres undefined) | inconclusive: 2.82 µM [inhibitor, full curve] | 
74 | O=C1NC(=O)/C(=C/c2ccc(N3CCOCC3)o2)N1 | inconclusive: 15.8 µM [inhibitor, partial curve] | 
